Experimental findings from the supplement of paper PMC10126150 are described below.

Values marked as one replicate rest on one cluster of the flow cell; about a third of the high ones do not repeat.
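Note: ATP exposure 15 min at 22 °C before imaging.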

This data set relates to ATP. Nature of the data set: switch fluorescence ratio, 500 uM ATP over buffer (Cy3 cluster intensity, sum of 5 cycles each) (fold (ratio)); higher = stronger signal-on switching upon ATP binding; sequences stand for … in TCGTCGGCAGCGTCAGATGTGTATAAGAGACAGTTTTTTTTTTTTTTTTTTTTTTTTT…TC. To be noted: aptamer strand: ATP DNA aptamer (quencher-CACCTGGGGGAGTATTGCGGAGGAAGG + anchor), 100 nM annealed; ATP concentration: 500 uM; one replicate. The method in brief:
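Imaging in selection buffer was followed by imaging after 15 min with 500 uM ATP at 22 °C, for Cy3-labelled switching-strand clusters annealed to 100 nM quencher-labelled ATP aptamer on a modified Illumina MiSeq flow-cell. Five of these buffer/ATP cycles ran, separated by NaOH stripping and re-annealing. The fluorescence ratio per cluster is summed target-cycle over summed buffer-cycle Cy3 intensity, averaged per switch-domain sequence; clusters outside 100-1000 RFU were removed.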
As for TATCCTGAAC, the switch fluorescence ratio was 1.54.
For the sequence ACCAGGAACC, the switch fluorescence ratio stood at 1.17.
For AAAAGAACA, the switch fluorescence ratio is 0.978.
As to TCCGTCATG, the switch fluorescence ratio came out at 1.14.
For TGCAGGTGG, the switch fluorescence ratio turned out to be 1.06.
As for GAGCATCGAT, the switch fluorescence ratio worked out at 1.01.
For the sequence TCAGAGACAT, the switch fluorescence ratio is 1.02.
With TACAAGATGG, the switch fluorescence ratio amounted to 0.958.
For AGGAGGTGG, the switch fluorescence ratio worked out at 0.94.
Consider TTTAAAAAG, for which the switch fluorescence ratio is 1.
Then CCGGATATTT, with 1.02.
For the sequence GCACGATGTA, the switch fluorescence ratio is 1.03.
In the case of CGTGAAGGGG, the switch fluorescence ratio is 0.979.
As for CACACGTA, the switch fluorescence ratio is 1.31.
ATCGGTCAAT: the switch fluorescence ratio turned out to be 1.04.
Regarding GTGTTTTGT, the switch fluorescence ratio was 1.01.
AAAGGCCATA: the switch fluorescence ratio is 1.01.
For the sequence CAGATGAGCG, the switch fluorescence ratio turned out to be 0.997.
Take TAAGGGTCAA: the switch fluorescence ratio was found to be 1.
For the sequence CTTAGTCGAG, the switch fluorescence ratio came to 0.982.
As to TTCCATGTTC, the switch fluorescence ratio is 0.964.
Next, AGTTTGATCG: 0.96; ATCATTGCTT: 1.05; CCCGGTGGTG: 1.04.
Regarding TTTGTCGTCC, the switch fluorescence ratio was 0.987.
Turning to AGGTTTCACA, the switch fluorescence ratio is 0.985.
In the case of ATCAATGATC, the switch fluorescence ratio is 0.957.
Regarding TAGGTGGATA, the switch fluorescence ratio came to 1.04.
Regarding TGAACTTCG, the switch fluorescence ratio worked out at 0.98.
With GTGAAAGCA, the switch fluorescence ratio amounted to 1.04.
With ACAATCAAGA, the switch fluorescence ratio was found to be 0.988.
Consider ACGCGTGTTC, for which the switch fluorescence ratio is 1.07.
With GAGACGACTC, the switch fluorescence ratio was 0.97.
Next, TTGGCTAGGA: 0.928; CGTTTCCGTA: 1.02.
For ATATCGGGGC, the switch fluorescence ratio amounted to 0.995.
For AAGGTTCCAT, the switch fluorescence ratio amounted to 0.966.
TGGAGGTCGT: the switch fluorescence ratio turned out to be 1.03.
Next, TCAGCCAGCT: 1.01; AAATCTTCGA: 1.02.
Regarding GGTCACATCT, the switch fluorescence ratio was determined as 1.02.
Turning to TTTGTTACCA, the switch fluorescence ratio was found to be 1.05.
As for CAGCGATTAA, the switch fluorescence ratio came to 0.983.
Regarding AGGTGGCAGA, the switch fluorescence ratio worked out at 0.969.
For the sequence CGATCTAACC, the switch fluorescence ratio worked out at 1.02.
Then CCCTCGGCAC, with 6.68; and GGGCCAATCA, with 1.02.
ATACGAGGCC: the switch fluorescence ratio turned out to be 1.08.
Then GCAACGGGCA, with 1.03; and AATTTAAACT, with 1.05.
In the case of TCGCAGACCG, the switch fluorescence ratio stood at 1.11.
For TGCGGCCGAG, the switch fluorescence ratio turned out to be 0.998.
For CGAGAAGGGG, the switch fluorescence ratio was 0.999.
Regarding TTGTGAGACA, the switch fluorescence ratio was determined as 1.02.
TCATTGTAAG: the switch fluorescence ratio was 1.01.
On to TCTGTCAGTA, for which the switch fluorescence ratio came out at 1.01.
On to TGTTATGTGT, for which the switch fluorescence ratio was determined as 1.02.
Next, GATGCGGTGG: 0.976; CATGTCCAGT: 1.
Turning to GTGGACACGA, the switch fluorescence ratio was determined as 0.965.
As for TAGATATTGC, the switch fluorescence ratio stood at 1.04.
Consider TAGCACTCCG, for which the switch fluorescence ratio came to 1.2.
In the case of CGATCAAATG, the switch fluorescence ratio amounted to 1.03.
Then TGCGGTTCAG, with 1.
With ATGCACTGT, the switch fluorescence ratio was 1.03.
GTTTGCGCC: the switch fluorescence ratio amounted to 1.06.
Turning to TAAACATTAA, the switch fluorescence ratio stood at 1.05.
With TCGAGCCCTA, the switch fluorescence ratio is 1.04.
Turning to GCCGCGACCG, the switch fluorescence ratio came to 1.05.
As for GCGCCAATCT, the switch fluorescence ratio turned out to be 1.2.
Take CCGGAAAGCT: the switch fluorescence ratio was 1.53.
GCTCTTAGGG: the switch fluorescence ratio was found to be 1.03.
Consider CGGATCTTAG, for which the switch fluorescence ratio came to 0.981.
Turning to TTAGGGCGAG, the switch fluorescence ratio amounted to 0.974.
Consider TGCGGGTGAG, for which the switch fluorescence ratio was found to be 1.05.
As to ATATTATAGG, the switch fluorescence ratio is 0.943.
As to TATTGCCTTG, the switch fluorescence ratio was determined as 0.962.
Turning to GGAGGAGGAG, the switch fluorescence ratio worked out at 0.905.
Take CTGTCAGTTA: the switch fluorescence ratio amounted to 1.03.
GGGCTCACCC: the switch fluorescence ratio was determined as 1.04.
CGTCGGGAGG: the switch fluorescence ratio was 1.01.
Then GTTACCCCTA, with 1.22.
Then TCTTGATATA, with 0.979; and GATCTCTGGA, with 1.07; and CCCGACTGGG, with 1.03.
Turning to GACCTGTCGT, the switch fluorescence ratio stood at 0.97.
Take TTTGAACTGC: the switch fluorescence ratio amounted to 0.937.
For CTGTACAGGG, the switch fluorescence ratio came to 0.997.
Then TCGTTGAAGA, with 1.01.
As for CAGATTAGGT, the switch fluorescence ratio stood at 0.995.
Next, CAGTAGGCCC: 0.954.
GCGAGACAAA: the switch fluorescence ratio came out at 1.01.
As for CCCAGACCTG, the switch fluorescence ratio amounted to 0.968.
Then TGACGCACGT, with 1.48; and AGTTGAATAT, with 1.08; and CTGGGAAAGC, with 0.977.
Next, CGGAGGTCCG: 1.06; TTACCCGCGG: 1.04; CTCGCTGGGC: 1.43.
Take GTAGGCCTTG: the switch fluorescence ratio was found to be 1.02.
Consider AAGTATGTGC, for which the switch fluorescence ratio was 1.07.
Regarding CCTACCCACT, the switch fluorescence ratio was found to be 1.62.
As to CGCGGCCCGA, the switch fluorescence ratio turned out to be 0.989.
Turning to AGCAAACTAG, the switch fluorescence ratio came to 1.09.
With TCAGGGCTGA, the switch fluorescence ratio was 0.984.
As to TGCAAACAGC, the switch fluorescence ratio was determined as 1.01.
In the case of ACAGTACGCT, the switch fluorescence ratio turned out to be 1.43.
On to TATTTAGTAC, for which the switch fluorescence ratio was 0.956.
Next, GGGGTCTCGG: 1.02; TTCCGAAGGG: 0.98.
On to TACTTCCATT, for which the switch fluorescence ratio stood at 1.02.
Turning to GCTGGGGCGC, the switch fluorescence ratio turned out to be 1.
Turning to GTTCTTGGAA, the switch fluorescence ratio worked out at 0.987.
Next, TTTGGCGCTC: 1; GGCACCAGGG: 1.24; TCAGTTTCCT: 1.04.
With TTAAATATCT, the switch fluorescence ratio was determined as 1.03.
With TTAGATTGCT, the switch fluorescence ratio is 0.975.
GAACTTTGGG: the switch fluorescence ratio was found to be 1.03.
Next, ATATTTCACG: 0.992.
